In PubChem BioAssay AID1508624 (National Center for Advancing Translational Sciences (NCATS), 2021):
The campaign covered roughly 48,000 compounds. About 120 (0.25%) were called active. About 4% were inconclusive and are not listed. Calls follow the shape of the dose curve; as a rule, active = well fitted activation curve with a large enough effect; inconclusive = small, poorly fitted or top-dose-only effect, or another doubt; inactive = no such curve, though single readings can be large or run the other way. The list shows a part of the results.

Assay: Primary qHTS for Identification of Small Molecule Activators of Huntingtin-Antisense Promoter Activity; also: nearly all actives have a fitted effect of over 55% in size
Conditions: HEK293 HTT-AS promoter firefly luciferase reporter, 24 h; series mostly up to 57.5 µM; activity change, positive = activation: at the top concentration
Source text: Assay Provider: Russell L. Margolis M.D.
Department Neurology, Johns Hopkins University School of Medicine, Baltimore, MD
Huntington's Disease (HD) is a neurodegenerative disorder caused by a CAG repeat expansion in exon 1 of huntingtin (HTT). While there are currently no disease-modifying treatments for HD, recent efforts have focused on development of nucleotide-based therapeutics to lower HTT expression. As an alternative to siRNA or oligonucleotide methods, we hypothesized that suppression of HTT expression might be accomplished by small molecules that either (1) directly decrease HTT expression by suppressing HTT promoter activity or (2) indirectly decrease HTT expression by increasing the promoter activity of HTT-AS, the gene antisense to HTT that appears to inhibit expression of HTT.
We developed and employed a high throughput screen for modifiers of HTT and HTT-AS promoter activity using luminescent reporter HEK293 cells; of the 52,041 compounds tested, we identified 898 replicable hits. We used a rigorous stepwise approach to assess compound toxicity and the capacity of the compounds to specifically lower huntingtin protein in 5 different cell lines, including HEK293 cells, HD lymphoblastoid cells, mouse primary neurons, HD iPSCs differentiated into cortical-like neurons, and HD hESCs. We found no compounds which were able to lower huntingtin without lowering cell viability in all assays, though the potential efficacy of a few compounds at non-toxic doses could not be excluded.
SEQUENCE No. (1, 2, 3, etc.); […] (e.g., Cells, Incubation, Reagent, etc.); VALUE and DESCRIPTION.
1; Reagent; 4 uL; 2,500 Hek293 luciferase reporter cells per wells
3; Compound; 23 nL; Control inhibitor / compound library
5; Reagent; 2.5 uL; Firefly Luc reagent; Dual-Glo Luciferase Reporter Assay System (Promega)
6; Time; 10 min; room temperature incubation
7; Detection; Luminescence; FLuc
NOTES (numbers refer to sequence above)
1; High-throughput screening, measuring luminescence from a Hek293 luciferase reporter, was performed in 1,536 well white-walled tissue-culture treated plates. 2,500 cells were plated in 4 µL of Opti-MEM per well using a Multidrop Combi Reagent Dispenser (ThermoFisher).
2; Assay plates were cultured for 24 hours.
3; Control inhibitor (PTC124; final concentration of 50 uM) and compound library (at final concentrations of 460 nM - 57.5 uM) were added to the assay plate using the Kalypsis Pintool Robotic System equipped with 1536 pinheads.
4; Cells were then incubated for 24 hours at 37 degrees C prior to luminescence measurements.
5; In all cases, luminescence was measured using the Dual-Glo Luciferase Reporter Assay System (Promega) following the manufacturer's instructions.
6; Room temperature incubation.
7; Luminescence signal was obtained using the PerkinElmer ViewLux plate reader. Results were normalized to vehicle control (0% activity) and zero RLU (-100% activity).

Activity change, positive = activation, inactive:
Cc1c(C)n(C)c2ccc(C(=O)NCCc3ccc(Cl)cc3)cc12 1.97%
Cc1ccc(NC(=O)C2CCCN(S(=O)(=O)c3c(C)n[nH]c3C)C2)cc1Cl (stereo unspecified) -44.5%
Cc1nn(-c2ccc(F)cc2)c(-n2cccc2)c1C(=O)N1CCN(c2ccccc2F)CC1 -6.88%
Cc1c(C(=O)Nc2ccc(F)c(F)c2)oc2ccc(S(=O)(=O)N3CCC4(CC3)OCCO4)cc12 -41.5%
O=C(Nc1c(-c2ccc(F)cc2)nc2ccccn12)c1cccc(F)c1 -9.28%
CC(=O)Nc1ccc(NS(=O)(=O)c2ccc(Cl)s2)cc1 -19.1%
COc1ccccc1CNC(=O)CN(c1ccc(C)cc1)S(=O)(=O)c1c(C)noc1C -21.2%
NC(=O)N1CCC(CC(=O)N2CCC([C@H]3c4ncc(Br)cc4CCc4cc(Cl)cc(Br)c43)CC2)CC1 -38%
CCOc1ccc(C(=O)c2cn(Cc3ccccc3)c3c(F)cc(F)cc3c2=O)cc1 -31%
CCCCc1ccc(NS(=O)(=O)c2ccc(N3CCCCS3(=O)=O)cc2)cc1 16%
COc1ccc(OC)c(NC(=O)c2cnc(N3CCCC3)nc2C)c1 0.416%
CCSc1ncc(Cl)c(C(=O)N(Cc2ccccc2)Cc2ccco2)n1 -41.9%
CCCOc1ccc(NC(=O)CC2C(=O)N(c3ccc(C)cc3)C(=O)N2C2CCCC2)cc1 (stereo unspecified) 6.86%
O=C(Nc1ccc(Cl)cc1)c1cc2nc(-c3ccc4c(c3)OCO4)cc(C(F)(F)F)n2n1 5.85% [at 11.5 µM, percent change from vehicle, -100% = no light]
CCn1c(=O)n(-c2cccc(Cl)c2)c(=O)c2sc3ccccc3c21 -4.87%
CCc1nn(CC(=O)N2CCN(c3ccc(Cl)cc3)CC2)c(=O)c2cc3occc3n12 -9.42%
COc1ccc(C(=O)Nc2ccccc2-c2nc(-c3ccc(OC)cc3)no2)cc1 2.73%
O=C(c1cnc(N2CCCCC2)c2ccccc12)N1CCN(c2ccc(Cl)cc2)CC1 -36.6%
COc1ccc(OC)c(/C=C(\C#N)c2nc3ccccc3c(=O)[nH]2)c1 -3.42%
O=C(CCC(=O)c1ccccc1)Nc1ccc(F)c(Cl)c1 -6.6%
COc1ccc(CCN2CC(C(=O)NCCc3ccccc3)CC2=O)cc1OC (stereo unspecified) 3.54%
Cc1ccc(C)c(S(=O)(=O)NCCc2csc(-c3ccc(Cl)cc3)n2)c1 -35.9%
O=S(=O)(NCCS(=O)(=O)N1CCN(c2ccccc2)CC1)c1ccc(Cl)cc1 -3.11%
Cc1cccc(NC(=O)C2CCCN(S(=O)(=O)c3ccc4c(c3)oc(=O)n4C)C2)c1 (stereo unspecified) -31.3%
Cc1sc2c(c1C)c(=O)n(CCc1ccccc1)c(=O)n2Cc1ccc(F)cc1 0.487%
CCOC(=O)c1ccc2c(c1)[C@@H]1C=CC[C@@H]1[C@H](c1cccc(OC)c1OC)N2 10.7%
CCCC(=O)C1=C(c2cccc(OC)c2)N(C(=O)CCC)n2c(C)nnc2S1 16.1%
Cc1cc(C)c2sc(N(Cc3cccnc3)C(=O)CCOc3ccccc3)nc2c1 -24.3%
Cc1ccc(-n2nc3ccc(NC(=O)Cc4ccc(Cl)cc4)cc3n2)cc1 -10.3%
CCOC(=O)c1c(NC(=O)C(C)Sc2cn(CCNC(=O)c3ccccc3OC)c3ccccc23)sc2c1CCC2 (stereo unspecified) -37.7%
COC(=O)c1sc2cccc(F)c2c1S(=O)(=O)NCc1ccc(Cl)cc1 -6.85%
CCOC(=O)COc1ccc(CC)cc1C(=O)c1ccn2nc(-c3ccc(Cl)cc3)cc2n1 -10.7%
COc1cccc(CNC(=O)CSC2=Nc3ccccc3C3=NC(C)C(=O)N23)c1OC (stereo unspecified) 6.61%
CCOc1ccc(NC(=O)Cn2c(=O)n(CCCC(=O)NCc3ccc4c(c3)OCO4)c(=O)c3ccccc32)cc1 -12.2%
Cc1ccc(CSc2ncc(Cl)c(C(=O)Oc3ccc(F)cc3)n2)cc1 16.4%
COc1ccccc1N1CCN(CCCNC(=O)c2cnn(-c3ccc(C)c(C)c3)c2C2CCN(C(=O)OC(C)(C)C)CC2)CC1 -33.1%
CCCCS(=O)(=O)c1oc(-c2ccc(F)cc2)nc1S(=O)(=O)c1ccccc1 -94.1%
Fc1ccc(-c2cc(C(F)(F)F)nc(NCc3ccccc3)n2)cc1 -18.2%
O=C(c1ccc2c(c1)N(Cc1ccc(F)cc1)C(=O)c1ccccc1S2(=O)=O)N1CCN(c2ccccn2)CC1 -36.4%
COc1ccccc1CNC(=O)c1cnc2c(-c3ccccc3)c(C)nn2c1C 4.77%
CCCCCC(=O)N(c1ccc(OCC)cc1)S(=O)(=O)c1ccc2c(c1)n(C)c(=O)n2C -12.6%
Cc1ccc(CCNC(=O)c2ccc(CS(=O)(=O)Cc3cccc(C)c3)o2)cc1 -16.4%
COc1ccc(Cn2ccc3nc(C)c(C(=O)N4CCN(c5ccccc5F)CC4)cc3c2=O)cc1 -27.2%
Cc1ccc(NC(=O)Cn2cc3c(n2)CCC(C)C3)cc1C (stereo unspecified) -12.3%
O=C(Nc1cc(C(F)(F)F)cc(C(F)(F)F)c1)c1cc(Cl)ccc1O -91.2%
CSc1ccc(CNC(=O)CN2C(=O)C3CCCCN3c3ccc(C(=O)N4CCCC4)cc32)cc1 (stereo unspecified) -10.4%
CCOC(=O)C1CCN(C(=O)c2ccc3c(c2)sc2nc(-c4ccc(C)cc4)cn23)CC1 2.92%
COc1ccc(NC(=O)c2cc(S(=O)(=O)NCCC3=CCCCC3)ccc2F)cc1 -69.9%
COC(=O)c1cc2sc(C)cc2n1CC(=O)Nc1cccc(SC)c1 5.52%
O=S(=O)(NCc1nc2cccnc2n1Cc1ccc(F)cc1)c1ccc(Cl)s1 -24.2%
COc1ccc(-c2nc3cc(C(C)C)ccc3o2)cc1NC(=O)c1ccc(C)c(Cl)c1 3.98%
CCc1ccc(NC(=O)C2CCN(S(=O)(=O)c3c(C)noc3/C=C/c3ccco3)CC2)cc1 -13.3%
FC(F)(F)c1ccc(-c2noc(-c3ccccc3Br)n2)cc1 -27.2%
CCC12CN3CC(C)(CN(C1)C3c1c[nH]c3ccc(OC)cc13)C2=O (stereo unspecified) -5.63%
CCN(CC)C(=O)c1sc2c(c1C)c(=O)n(-c1ccc(C)c(C)c1)c(=O)n2Cc1cccc(Cl)c1 -29.9%
CCOC(=O)C1CCCN(C(=O)CCS(=O)(=O)c2cc3c(cc2Cl)NC(=O)CO3)C1 (stereo unspecified) -17.7%
CCC(Sc1nc2cc3c(cc2c(=O)n1CCCC(=O)NCc1ccc(OC)cc1)OCO3)C(=O)NCCCOC (stereo unspecified) -2.56%
Cc1ccc(OCC(=O)Nc2ccc3nc(SCC(=O)N4CCOCC4)sc3c2)cc1C -16.3%
Cc1ccc2cccc(NC(=O)c3ccc(C#N)cc3F)c2n1 -13.7%
Cc1ccccc1NC(=O)Cn1c(=O)n(CCC(=O)NCc2ccc3c(c2)OCO3)c(=O)c2sccc21 -18.7%
CC(=O)N1CCc2cc(CNS(=O)(=O)c3ccc(C(C)(C)C)cc3)ccc21 -34%
O=C1CN(C(=O)c2ccc(S(=O)(=O)N3CCCCC3)cc2)C(c2ccc(F)cc2)c2cc(Br)ccc2N1 (stereo unspecified) -24.1%
Cc1ccccc1C(=O)NC1(C(F)(F)F)N=C(c2ccccc2)N(Cc2ccccc2)C1=O (stereo unspecified) -18.4%
COc1cccc(-c2cc(C(F)(F)F)n3nc(C)c(-c4ccccc4)c3n2)c1 -4.84%
O=C(COc1ccccc1[N+](=O)[O-])Nc1cc(-c2nc3cc(Cl)ccc3o2)ccc1Cl 10.7%
COC(=O)c1ccc(Oc2nc3c(c(=O)n(C)c(=O)n3C)n2C(C)C)cc1 1.73%
CCc1ccccc1N(C)C(=O)c1nn(C)c2c1CSc1ccccc1-2 1.88%
CCCCNC(=O)CSc1nc2cc3c(cc2c(=O)n1CCCCCC(=O)NCCc1ccc(OC)c(OC)c1)OCO3 -3.74%
Cc1ccc2nc(N3CCC(C(=O)NCc4ccc(F)cc4)CC3)[nH]c2c1 1.54%
Cc1ccc2nc(COc3cccc(NC(=O)c4cccc(Cl)c4)c3)cc(=O)n2c1 -2.9%
Cc1cc(C)c(S(=O)(=O)NCc2csc(-c3ccccc3)n2)c(C)c1 -29.3%
Cc1c(CC(=O)NCCc2ccccc2F)c(=O)oc2cc(O)c(Cl)cc12 -7.5%
Cc1ccc(-n2ncc3c(N(CC(C)C)CC(C)C)ncnc32)c(C)c1 -18.7%
Cc1ccc(NC(=O)c2c(C)oc3ccc(O)c(CN4CCCCCC4)c23)cc1 -18.7%
CC(C)S(=O)(=O)c1oc(-c2cccs2)nc1S(=O)(=O)c1ccc(F)cc1 -93.5%
Cc1ccc(CCNC(=O)c2c(C)oc3nc(C)nc(N4CCOCC4)c23)cc1 0.743%
CCN(CCCNC(=O)c1cc(Nc2ccc(OC)cc2OC)nc2ccccc12)c1cccc(C)c1 -28.1%
Cn1cc(-c2cc3n(n2)CCC(=O)N3CC(=O)NCc2ccc(Cl)cc2)c2ccccc21 -22.6%
COc1ccc(-c2onc(C)c2C)cc1S(=O)(=O)N1CCN(c2ccc(Cl)cc2)CC1 -11.9%
O=C(C=Cc1cccnc1)NCCCCC1CCN(C(=O)c2ccccc2)CC1 -27.3%
CC(C)OC(=O)c1c(NC(=O)COc2cccc(Br)c2)sc2c1CCCC2 7.11%
O=C(CSc1nc2c([nH]c3ccccc32)c(=O)n1-c1ccccc1)N1CCOCC1 -8.93%
CC(CNC(=O)C1CCN(S(=O)(=O)c2ccc3c(ccn3C)c2)CC1)c1ccccc1 (stereo unspecified) -22.8%
CCN(CC)CCn1c(-c2ccccc2)csc1=Nc1ccccc1 16%
Nc1nonc1C(=O)NCCNCc1cccc(Cl)c1Cl -6.7%
O=C1CC(c2cccc(O)c2)c2cc3c(cc2N1)OCO3 (stereo unspecified) -13.2%
CCCCN(CC)CCCNC(=O)C1CCCN(c2ncnc3c2nc2n3CCCCC2)C1 (stereo unspecified) -9.67% [at 11.5 µM, percent change from vehicle, -100% = no light]
COc1ccc(NC(=O)Cn2c(=O)n(Cc3ccccc3Cl)c(=O)c3cc(OC)c(OC)cc32)cc1OC -4.77%
CCOc1cccc(NC(=O)C2CC(=O)N(C)C(=Nc3ccc(F)cc3)S2)c1 (stereo unspecified) -6.89%
O=C(c1ccc(Br)s1)N(Cc1cccnc1)c1nc2ccc(F)cc2s1 12.4%
CCOc1ccccc1NC(=O)CN1C(=O)COc2ccc(S(=O)(=O)N3CCCCC3)cc21 -7.4%
